# Reference: ChEMBL document CHEMBL4888484, “Replenishing the malaria drug discovery pipeline: Screening and hit evaluation of the MMV Hit Generation Library 1 (HGL1) against asexual blood stage Plasmodium falciparum ,using a nano luciferase reporter read-out” (2022)
# The campaign covered roughly 150,000 compounds. About 540 (0.36%) showed an effect of 50% or more. Some of the results follow.
# Test system: Plasmodium falciparum
# Assay: Primary screen in NF54 nanoGlo assay, in single point, at 2uM, 72h; a lower Z score goes with more inhibition
# Format: functional, Erythrocyte
# Settings: timepoint 72 hour
Structure (SMILES),% Inhibition [%],Z score
O=C1C[C@@H](C(=O)N2C3CCC2CC(CC(F)(F)F)C3)NC(=O)N1 (some centres not stated),6,-1.23
Cc1nc(CNC(=O)N[C@H](c2cccs2)C(C)(C)C)no1,3,-0.54
Cc1nc(C(C)C)sc1-c1nc([C@H]2CCOC2)no1,-3,0.5
CN1CCCC[C@H]1c1ncnn1Cc1c(F)cccc1Cl,-17,2.21
COC[C@H]1CCCN1C(=O)CCc1nc(C2CC2)no1,4,-0.51
O=C(NCc1nc(C2CC2)no1)NCc1cccs1,-3,0.28
COc1ccc(-n2c(C[C@@H]3C(=O)N(C)c4ccccc43)nc3ccccc3c2=O)cc1,-5,0.54
CCN1CCCN(CC(=O)NC2CCCCCCC2)CC1,-1,0.11
N#Cc1cc(NCc2ccc3c(c2)OCCO3)ccc1Cl,-16,1.66
C[C@@H](Cn1ncc2ccccc2c1=O)NS(=O)(=O)c1ccc2c(c1)CCCC2,-5,0.6
CCCN1C[C@@H](n2cnc3cccnc3c2=O)CC1=O,-15,1.89
C[C@]1(Cc2ccc3c(c2)OCO3)CCCN(Cc2ccncc2)C1,-15,1.56
c1cncc(-c2noc(C3CN(Cc4ccco4)C3)n2)c1,-2,0.34
CC(=O)N1CC(NC(=O)Cc2c[nH]c3cc(Cl)ccc23)C1,-41,4.84
Cc1noc(C(C)(C)NC(=O)Cc2cc(C)on2)n1,2,-0.22
Cc1c[nH]c(CN(Cc2ccc3c(c2)OCO3)C2CC2)c(C)c1=O,-2,0.35
CCc1nccn1CCCn1cnc2cn(C)nc2c1=O,-1,0.1
CN(Cc1ncc[nH]1)C(=O)NC1(CC(C)(C)C)CC1,-11,1.08
Cc1cnc(CCNC(=O)c2cn(C)cn2)n1C1CCCCC1,2,-0.23

Structure (SMILES),% Inhibition [%],Z score
CCC(=O)Nc1cn(-c2cccc(C(=O)NCc3ccncc3)c2)nc1C,-2,0.32
O=C(CCCN1CCCC1)N1C[C@H]2CCC[C@@H](C2)C1,0,0.09
O[C@@H]1COCCN(Cc2cc3c(cc2Cl)OCO3)C1,6,-0.98
O=C(NCc1ccc(F)cc1)Nc1ccccc1-c1cc2ccccc2[nH]1,-3,0.4
C[C@H](NC(=O)C1COc2ccccc2O1)C(=O)N1CCN(Cc2ccccc2)CC1 (some centres not stated),0,0.05
Cc1c(S(=O)(=O)N2CCCC[C@H]2C(=O)O)oc2ccc(F)cc12,-1,0.11
Cn1cc(S(=O)(=O)Oc2ccc(C(C)(C)C)cc2)cc1C(N)=O,-2,0.37
C[C@H]1C(=O)N(C)C[C@@H](COc2ccccc2)N1C(=O)C1CCOCC1,-7,0.87
O=C(O)c1csc(NC(=O)c2cccc([C@H]3CCOC3)c2)c1,-11,1.14
Cc1cc(N2CCN(Cc3cccc(C#N)c3)C[C@H](O)C2)nc(N)n1,21,-2.71
NC(=O)C(NC(=O)c1sc2sccc2c1Cl)C(N)=O,22,-3.02
O=S(=O)(Nc1ccc(F)cn1)c1ccc(Br)o1,21,-2.09
O=C(Cn1cnc2c(cnn2CCO)c1=O)N1CCN(c2ccccc2)CC1,-9,1.13
CN(Cc1cnccn1)C(=O)Nc1ccc2c(c1)CCCN2C,-16,2.21
CCCn1nccc1C(=O)N[C@H]1CCCn2ncnc21,4,-0.68
CC(C)(C)c1ncn(CC(=O)NCCC2CCCCC2)n1,-6,0.76
CN(C)c1noc(-c2cccc3[nH]c(CO)nc23)n1,-11,2.1
Cc1ccc(OC/C=C/Cn2ccnc2)c(C)c1,-6,0.69
CCCC[C@H](CC)CNC(=O)c1ccccc1OC,-5,0.6

Structure (SMILES),% Inhibition [%],Z score
Cn1cc(C(Nc2cccc(C#N)n2)[C@H]2C[C@H](O)C2)cn1 (some centres not stated),-21,1.88
CC1(C)CN(C(=O)C2C3CCCC32)CC[S+]1[O-] (configuration not stated),-14,1.42
COc1ccc(CN2CC[C@@H](CO)N(C)c3cccnc3C2)cc1,19,-2.21
Cn1ccnc1[C@H]1OCC[C@@H]1NC(=O)Nc1csc(-c2ccccn2)n1,-8,1.01
CN1CCC(NC(=O)c2cc(-c3ccccc3)nc3ncnn23)CC1,-4,0.47
Cc1cc(C(=O)Nc2sccc2C(=O)Nc2ccc(Cl)cc2)no1,-1,0.15
Oc1cccc(CNc2ccc(CN3CCC(O)CC3)cc2)c1,-13,1.98
CC(C)c1nc2cc(CCC(=O)NC3CCCCC3)ccc2[nH]1,-8,1.12
CCn1ccnc1CN1CCC2(CCC(=O)N(CCc3ccccc3)C2)CC1,-9,1.5
O=C1O[C@]2(CCCN(S(=O)(=O)c3cccnc3)C2)c2ccccc21,-6,0.89
FC(F)(F)CN1CC[C@H](c2nc(-c3cocn3)no2)C1,-4,0.7
C[C@H]1CN(C(=O)c2noc(-c3cccc(F)c3)n2)CCO1,-5,0.64
CCc1nnnn1Cc1nccn1C(F)F,-9,1.44
C[C@H]1C(=O)N(c2ccccc2)CCN1C(=O)c1ccoc1,-7,1.37
O=C(c1ccc2c(c1)OCO2)N1CC(N2C(=O)C3CC=CCC3C2=O)C1 (configuration not stated),-12,1.32
Cc1nc(-c2ccccc2)sc1NC(=O)OC(C)(C)C,-5,0.54
CCN(C)C(=O)c1ccc(CN2C(=O)COc3ccc(C(=O)COc4ccc(F)cc4C)cc32)o1,2,-0.29
COc1ccc(CC(=O)Nc2ccc(-n3ccnc3C)nc2)cc1OC,-12,1.97
